The values that follow come from the supplement of paper PMC11876631.

B1: argA M439W (protein)
chain: MVKERKTELVEGFRHSVPYINTHRGKTFVIMLGGEAIEHENFSSIVNDIGLLHSLGIRLVVVYGARPQIDANLAAHHHEPLYHKNIRVTDAKTLELVKQAAGTLQLDITARLSMSLNNTPLQGAHINVVSGNFIIAQPLGVDDGVDYCHSGRIRRIDEDAIHRQLDSGAIVLMGPVAVSVTGESFNLTSEEIATQLAIKLKAEKMIGFCSSQGVTNDDGDIVSELFPNEAQARVEAQEEKGDYNSGTVRFLRGAVKACRSGVRRCHLISYQEDGALLQELFSRDGIGTQIVMESAEQIRRATINDIGGILELIRPLEQQGILVRRSREQLEMEIDKFTIIQRDNTTIACAALYPFPEEKIGEMACVAVHPDYRSSSRGEVLLERIAAQAKQSGLSKLFVLTTRSIHWFQERGFTPVDIDLLPESKKQLYNYQRKSKVLWADLG
B2: fabD V114P (protein)
chain: MTQFAFVFPGQGSQTVGMLADMAASYPIVEETFAEASAALGYDLWALTQQGPAEELNKTWQTQPALLTASVALYRVWQQQGGKAPAMMAGHSLGEYSALVCAGVIDFADAVRLPEMRGKFMQEAVPEGTGAMAAIIGLDDASIAKACEEAAEGQVVSPVNFNSPGQVVIAGHKEAVERAGAACKAAGAKRALPLPVSVPSHCALMKPAADKLAVELAKITFNAPTVPVVNNVDVKCETNGDAIRDALVRQLYNPVQWTKSVEYMAAQGVEHLYEVGPGKVLTGLTKRIVDTLTASALNEPSAMAAALEL
B3: fabD I135W (protein)
chain: MTQFAFVFPGQGSQTVGMLADMAASYPIVEETFAEASAALGYDLWALTQQGPAEELNKTWQTQPALLTASVALYRVWQQQGGKAPAMMAGHSLGEYSALVCAGVIDFADAVRLVEMRGKFMQEAVPEGTGAMAAWIGLDDASIAKACEEAAEGQVVSPVNFNSPGQVVIAGHKEAVERAGAACKAAGAKRALPLPVSVPSHCALMKPAADKLAVELAKITFNAPTVPVVNNVDVKCETNGDAIRDALVRQLYNPVQWTKSVEYMAAQGVEHLYEVGPGKVLTGLTKRIVDTLTASALNEPSAMAAALEL
B4: fabD V168A (protein)
chain: MTQFAFVFPGQGSQTVGMLADMAASYPIVEETFAEASAALGYDLWALTQQGPAEELNKTWQTQPALLTASVALYRVWQQQGGKAPAMMAGHSLGEYSALVCAGVIDFADAVRLVEMRGKFMQEAVPEGTGAMAAIIGLDDASIAKACEEAAEGQVVSPVNFNSPGQVAIAGHKEAVERAGAACKAAGAKRALPLPVSVPSHCALMKPAADKLAVELAKITFNAPTVPVVNNVDVKCETNGDAIRDALVRQLYNPVQWTKSVEYMAAQGVEHLYEVGPGKVLTGLTKRIVDTLTASALNEPSAMAAALEL
B5: fabD I135A (protein)
chain: MTQFAFVFPGQGSQTVGMLADMAASYPIVEETFAEASAALGYDLWALTQQGPAEELNKTWQTQPALLTASVALYRVWQQQGGKAPAMMAGHSLGEYSALVCAGVIDFADAVRLVEMRGKFMQEAVPEGTGAMAAAIGLDDASIAKACEEAAEGQVVSPVNFNSPGQVVIAGHKEAVERAGAACKAAGAKRALPLPVSVPSHCALMKPAADKLAVELAKITFNAPTVPVVNNVDVKCETNGDAIRDALVRQLYNPVQWTKSVEYMAAQGVEHLYEVGPGKVLTGLTKRIVDTLTASALNEPSAMAAALEL
B6: fabD I135P (protein)
chain: MTQFAFVFPGQGSQTVGMLADMAASYPIVEETFAEASAALGYDLWALTQQGPAEELNKTWQTQPALLTASVALYRVWQQQGGKAPAMMAGHSLGEYSALVCAGVIDFADAVRLVEMRGKFMQEAVPEGTGAMAAPIGLDDASIAKACEEAAEGQVVSPVNFNSPGQVVIAGHKEAVERAGAACKAAGAKRALPLPVSVPSHCALMKPAADKLAVELAKITFNAPTVPVVNNVDVKCETNGDAIRDALVRQLYNPVQWTKSVEYMAAQGVEHLYEVGPGKVLTGLTKRIVDTLTASALNEPSAMAAALEL
B7: fabD I135Q (protein)
chain: MTQFAFVFPGQGSQTVGMLADMAASYPIVEETFAEASAALGYDLWALTQQGPAEELNKTWQTQPALLTASVALYRVWQQQGGKAPAMMAGHSLGEYSALVCAGVIDFADAVRLVEMRGKFMQEAVPEGTGAMAAQIGLDDASIAKACEEAAEGQVVSPVNFNSPGQVVIAGHKEAVERAGAACKAAGAKRALPLPVSVPSHCALMKPAADKLAVELAKITFNAPTVPVVNNVDVKCETNGDAIRDALVRQLYNPVQWTKSVEYMAAQGVEHLYEVGPGKVLTGLTKRIVDTLTASALNEPSAMAAALEL

± gives the standard deviation of the averaged measurements. Laboratory Escherichia coli strains with one amino-acid change in an essential protein, pooled on minimal glucose agar with carbenicillin or gentamicin at twice the control MIC (plus kanamycin and chloramphenicol for the plasmids), 48 h. Fold change of barcode share against drug-free plates; higher = less susceptible. Active = above 20 in both replicates (the paper's putatively resistant). '<' = one read or none on drug, '>' = one read or none on a drug-free plate. Shares are relative, so most strains fall below 1 when a few take over. Listed are strains with at least 15 reads on both drug-free plates, and hits; most hits rest on fewer reference reads. Replicate rank correlation about 0.5. Edits are read from barcodes.

The first series has as its target Escherichia coli (laboratory strain). Put plainly: barcode share on antibiotic plates over drug-free plates; higher = less susceptible. The conditions noted are these: antibiotic: carbenicillin; 2× MIC (3.1 µg/mL). As for the experimental part: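 A pool of E. coli strains, each edited to carry one amino-acid change in an essential protein, was grown for 48 h on minimal glucose agar with or without antibiotic; strain barcodes were sequenced; mean of two replicates.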
For the protein B1, the “fold change of barcode share” value turned out to be 0.435 ± 0.068.

Take B2: the “fold change of barcode share” value stood at 0.32 ± 0.048.

As for B3, the “fold change of barcode share” value turned out to be 0.389 ± 0.1.

On to B4, for which the “fold change of barcode share” value came to 0.215 ± 0.032.

As to B5, the “fold change of barcode share” value came to 2.04 ± 1.3.

For B6, the “fold change of barcode share” value was 0.537 ± 0.096.

As to B7, the “fold change of barcode share” value is 0.476 ± 0.12.

Staying with this series, now noted: antibiotic: gentamicin; 2× MIC (MIC 0.45 µg/mL).
On to B1, for which the “fold change of barcode share” value came to 0.205 ± 0.26.

Regarding B2, the “fold change of barcode share” value is below 0.00443.

As to B3, the “fold change of barcode share” value was below 0.00402.

For B4, the “fold change of barcode share” value was below 0.00718.

Consider B5, for which the “fold change of barcode share” value is below 0.00302.

For the protein B6, the “fold change of barcode share” value stood at 0.00729 ± 0.0041.

With B7, the “fold change of barcode share” value was below 0.00369.
